Results on 14 compounds are retold here after ChEMBL document CHEMBL4706658, “Discovery and Biological Evaluation of N-Methyl-pyrrolo[2,3-b]pyridine-5-carboxamide Derivatives as JAK1-Selective Inhibitors” (J Med Chem, 2021).

The target of this assay is T1, Tyrosine-protein kinase JAK3 (Homo sapiens, UniProt P52333).
T1 sequence (P52333 whole entry): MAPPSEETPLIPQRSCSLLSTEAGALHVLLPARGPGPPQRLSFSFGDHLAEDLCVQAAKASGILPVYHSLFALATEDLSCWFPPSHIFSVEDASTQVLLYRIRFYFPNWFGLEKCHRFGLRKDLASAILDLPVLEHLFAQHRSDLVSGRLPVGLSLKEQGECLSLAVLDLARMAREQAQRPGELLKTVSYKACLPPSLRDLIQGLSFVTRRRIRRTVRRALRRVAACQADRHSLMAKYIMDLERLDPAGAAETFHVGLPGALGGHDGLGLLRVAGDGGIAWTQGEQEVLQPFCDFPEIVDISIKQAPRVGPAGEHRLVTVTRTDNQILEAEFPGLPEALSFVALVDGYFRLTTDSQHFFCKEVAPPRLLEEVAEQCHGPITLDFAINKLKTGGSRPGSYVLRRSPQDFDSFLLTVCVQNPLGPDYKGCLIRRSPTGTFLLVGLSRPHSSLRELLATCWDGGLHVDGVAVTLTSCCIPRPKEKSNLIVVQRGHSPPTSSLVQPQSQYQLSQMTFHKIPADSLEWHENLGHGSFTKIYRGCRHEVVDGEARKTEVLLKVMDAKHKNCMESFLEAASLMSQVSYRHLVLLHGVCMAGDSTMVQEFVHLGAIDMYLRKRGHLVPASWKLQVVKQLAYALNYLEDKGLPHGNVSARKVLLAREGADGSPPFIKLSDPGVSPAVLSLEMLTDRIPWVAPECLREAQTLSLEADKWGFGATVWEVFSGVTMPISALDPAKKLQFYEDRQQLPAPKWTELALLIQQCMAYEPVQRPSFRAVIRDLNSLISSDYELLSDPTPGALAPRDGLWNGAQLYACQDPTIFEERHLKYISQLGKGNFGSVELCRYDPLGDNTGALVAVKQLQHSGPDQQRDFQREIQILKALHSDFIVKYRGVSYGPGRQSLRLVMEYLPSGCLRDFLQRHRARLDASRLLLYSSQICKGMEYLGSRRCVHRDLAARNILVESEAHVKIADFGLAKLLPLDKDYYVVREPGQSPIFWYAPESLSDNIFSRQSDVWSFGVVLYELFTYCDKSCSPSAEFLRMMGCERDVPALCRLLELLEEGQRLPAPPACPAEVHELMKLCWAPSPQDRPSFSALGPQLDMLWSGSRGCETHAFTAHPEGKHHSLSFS

Broadly, the IC50 is the concentration that gives 50% inhibition. For the compound `CNC(=O)c1cnc2[nH]ccc2c1NC1CCCN(Cc2cccc(OC)c2)CC1` (centres undefined), the IC50 came out at 72.8 nM.

`COc1cccc(CN2CCC(Nc3c(C(=O)NC4CC4)cnc4[nH]ccc34)CC2)c1` came in with an IC50 of 8490 nM. The compound `CNC(=O)c1cnc2[nH]ccc2c1NC1CCN(Cc2ccccc2)CC1` registered an IC50 of 690 nM. Next, `O=C(NC1CC1)c1cnc2[nH]ccc2c1NC1CCN(Cc2ccccc2)CC1`: 517 nM. For `CNC(=O)c1cnc2[nH]ccc2c1NC1CCN(Cc2ccc(OC)c(OC)c2)CC1` the value was 2580 nM; for `CNC(=O)c1cnc2[nH]ccc2c1NC1CCN(Cc2ccc(OC)cc2)CC1`, 421 nM. Turning to `COc1cccc(CN2CC[C@@H](Nc3c(C(N)=O)cnc4[nH]ccc34)C[C@H]2C)c1` (relative stereo), the IC50 worked out at 8.84 nM. For `COc1cccc(CN2CCC(Nc3c(C(=O)NC4CCCC4)cnc4[nH]ccc34)CC2)c1` the value was more than 10000 nM. `CNC(=O)c1cnc2[nH]ccc2c1N[C@@H]1CCN(Cc2ccc(C#N)cc2)[C@H](C)C1` (relative stereo) showed a 50% inhibitory concentration (IC50) of 2.41 nM. Next, `CNC(=O)c1cnc2[nH]ccc2c1NC1CCN(Cc2cccc(OC)c2)CC1`: 862 nM.

`C[C@@H]1C[C@H](Nc2c(C(N)=O)cnc3[nH]ccc23)CCN1Cc1cccc(Cl)c1` (relative stereo) gave an IC50 of 9.94 nM. `CNC(=O)c1cnc2[nH]ccc2c1NC1CCN(Cc2ccccc2OC)CC1`: inhibition was half-maximal at 305 nM (IC50). For `CNC(=O)c1cnc2[nH]ccc2c1NC1CCN(Cc2cccc(C#N)c2)CC1` the value was 248 nM; for `CNC(=O)c1cnc2[nH]ccc2c1NC1CCCN(Cc2ccccc2)CC1` (centres undefined), 341 nM.
